Hit rate of the full screen: of about 420,000 compounds, about 50,000 (12%) were called active. Inconclusive results, whose numbers are uncertain, are shown with a selection of clear calls. The call rests on the fitted dose curve; in most records, active means well fitted inhibition curve with a large enough effect; inconclusive means small, poorly fitted or top-dose-only effect; inactive means flat fitted curve, though single readings scatter. Potencies of inconclusive entries are left out as doubtful fits.
Assay: qHTS for Inhibitors of human tyrosyl-DNA phosphodiesterase 1 (TDP1): qHTS in cells in presence of CPT; further: nearly all actives have a fitted effect of over 55% in size
Conditions: chicken DT40 Tdp1-/-;hTDP1 cells + 20 nM CPT, ATP luminescence, 48 h; series mostly up to 46.2 µM
Method in brief: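 Chicken DT40 Tdp1-/- cells complemented with human TDP1, 400 cells/well, exposed to compounds plus 20 nM camptothecin for at least 48 h at 37 C; viability read as ATP content by CellTiter-Glo luminescence.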
Potency means the concentration at half of the fitted maximal effect; tags describe the fitted curve by direction and shape.

SMILES	Potency
COc1cccc(NC(=O)Nc2nnc(CC(=O)NCc3ccccc3)s2)c1	inconclusive [inhibitor, single point]
Cc1cc(C)c2c(c1)cc(C)c1nnc(SCC(=O)N3CCCc4ccccc43)n12	inactive
CCNC(=O)NC(=O)CSc1ccc2ccccc2c1	inconclusive [inhibitor, single point]
Oc1ccc2ccccc2c1C=Nc1ccccc1-c1nc2ccccc2[nH]1	inconclusive [inhibitor, single point]
O=C(O)Cc1cn(-c2ccccc2)nc1-c1ccccc1	inactive
Cc1noc(C)c1C(=O)N1CCC2(CCCN(C(=O)Nc3ccccc3)C2)CC1	inactive
O=C(CCc1ccccc1O)N/N=C/c1ccc(Sc2cccc3cccnc23)o1	inconclusive [inhibitor, single point]
N#Cc1c(-c2ccc(Br)cc2)cc(-c2cccnc2)nc1N	inactive
CN(/C(=N\S(=O)(=O)c1ccccc1)c1ccccc1)c1ccc(O)cc1	inconclusive [inhibitor, single point]
CCCCc1c(C)c(C#N)c2nc3ccccc3n2c1NCCN(C)C	inconclusive [inhibitor, single point]
CCOc1ccc(-c2nn(-c3ccccc3)cc2/C=C(\C#N)S(=O)(=O)c2ccccc2)cc1C	inconclusive [inhibitor, single point]
CC(C)COc1ccc(C(=O)Nc2ccc(NC(=O)c3ccco3)cc2)cc1	inconclusive [inhibitor, single point]
N=c1c(S(=O)(=O)c2ccccc2)cc2c(=O)n3ccccc3nc2n1CC1CCCO1 (centres undefined)	inconclusive [inhibitor, single point]
C=CCOc1ccc(/C(O)=C2/C(=O)C(=O)N(CCCN3CCOCC3)C2c2ccccc2)cc1 (centres undefined)	inconclusive [inhibitor, single point]
COCCN1C(=O)CN(S(C)(=O)=O)CC1(C)C(=O)NC(C)C (centres undefined)	inactive
CN(C)S(=O)(=O)c1cccc(NC(=O)CSc2nnnn2-c2ccccc2)c1	active: 14.6 µM
C[C@@H]1CN([C@@H](C)CO)C(=O)CCCn2nncc2CO[C@@H]1CN(C)S(=O)(=O)c1ccccc1	inactive
CCOC(=O)c1nnn(-c2nonc2-n2cccc2)c1CN1CCCCC1	inconclusive [inhibitor, single point]
COC(=O)[C@]12CCCCC=C1N(Cc1ccccc1)C(=O)[C@H](CC(=O)NCCCN1CCCC1=O)C2	inactive

From PubChem BioAssay AID686979 (National Center for Advancing Translational Sciences (NCATS), 2013)
